Results: paper PMC4807781
Substitutions are numbered along the chain they refer to. Results are given in words; binding and its absence hold for the method and conditions named. Binding seen in cells or lysates may run through a third protein. Some entries that bind do so weakly or less than the wild type. Where a sequence is shown, tags or fusion partners need not be part of it. Each block holds one molecule with its values, some of them ahead of it.

Tests used:
[1] = molecular target: T1, EGFP-LTi6b (UniProt Q9ZNS6); experiment: co-IP; total protein extract of FLAG-ZAR1 or EGFP-LTi6b (control) transgenic plants (inflorescences and siliques 1-2 DAP, or seedlings 10 DAG); anti-FLAG-M2 gel, 30 min; blots with anti-AGB1 and anti-CaM antibodies
T1 sequence: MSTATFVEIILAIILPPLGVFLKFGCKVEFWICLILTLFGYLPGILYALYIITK

[2] = molecular target: T2, FLAG-ZAR1 (transgenic plants) (Arabidopsis) (UniProt Q9ZU46); experiment: as above
T2 sequence: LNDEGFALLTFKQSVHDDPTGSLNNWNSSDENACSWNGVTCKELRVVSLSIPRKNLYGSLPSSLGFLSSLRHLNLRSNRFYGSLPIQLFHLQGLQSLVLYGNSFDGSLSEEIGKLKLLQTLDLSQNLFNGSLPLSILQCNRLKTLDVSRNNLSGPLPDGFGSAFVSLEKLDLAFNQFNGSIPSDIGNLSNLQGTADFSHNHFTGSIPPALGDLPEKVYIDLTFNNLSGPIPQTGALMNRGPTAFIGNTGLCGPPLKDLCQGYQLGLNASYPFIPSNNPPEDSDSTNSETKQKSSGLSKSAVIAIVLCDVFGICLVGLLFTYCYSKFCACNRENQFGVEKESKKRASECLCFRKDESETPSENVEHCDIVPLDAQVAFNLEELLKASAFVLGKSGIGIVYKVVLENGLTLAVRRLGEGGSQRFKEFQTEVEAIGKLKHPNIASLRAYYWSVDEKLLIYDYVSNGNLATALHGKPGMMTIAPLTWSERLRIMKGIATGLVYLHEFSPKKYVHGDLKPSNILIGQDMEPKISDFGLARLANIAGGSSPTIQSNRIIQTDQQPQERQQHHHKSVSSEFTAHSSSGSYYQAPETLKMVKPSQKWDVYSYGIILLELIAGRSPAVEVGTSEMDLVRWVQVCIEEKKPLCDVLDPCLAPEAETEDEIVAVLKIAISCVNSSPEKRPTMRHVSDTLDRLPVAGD

[3] = molecular target: T3, MBP-AGB1 (Arabidopsis) (UniProt P49177); experiment: pull-down; His-tagged ZAR1 intracellular domain co-incubated with GST-CaM1 and MBP-AGB1 together; pulled down by GST-CaM1 or by MBP-AGB1
T3 sequence: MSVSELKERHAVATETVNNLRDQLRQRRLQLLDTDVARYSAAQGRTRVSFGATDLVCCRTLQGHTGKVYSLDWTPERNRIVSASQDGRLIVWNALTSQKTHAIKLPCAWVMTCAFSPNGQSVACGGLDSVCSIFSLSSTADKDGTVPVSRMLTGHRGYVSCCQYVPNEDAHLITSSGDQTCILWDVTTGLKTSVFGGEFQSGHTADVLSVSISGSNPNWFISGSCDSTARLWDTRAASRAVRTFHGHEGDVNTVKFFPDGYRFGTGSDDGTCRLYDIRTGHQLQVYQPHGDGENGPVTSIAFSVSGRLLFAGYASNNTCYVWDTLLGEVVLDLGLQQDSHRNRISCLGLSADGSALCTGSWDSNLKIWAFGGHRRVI

[4] = molecular target: T4, FLAG-ZAR1 (protoplasts) (Arabidopsis) (UniProt Q9ZU46); experiment: co-IP; FLAG-tagged ZAR1 or variants co-expressed with HA-tagged AGB1 in Arabidopsis leaf protoplasts; membrane fraction in 1% Triton X-100; anti-FLAG-M2 gel, 4°C, 1 hr; Western blot
T4 sequence: T2 sequence

[5] = molecular target: T5, FLAG-ZAR^K534>A (Arabidopsis) (UniProt Q9ZU46); experiment: as above
T5 sequence: T2 sequence with K514A

[6] = molecular target: GST-CaM1 (Arabidopsis) (UniProt P0DH95); experiment: pull-down; His-tagged ZAR1 intracellular domain co-incubated with GST-CaM1 and MBP-AGB1 together; pulled down by GST-CaM1 or by MBP-AGB1
[7] = molecular target: HA-CaM1 (Arabidopsis) (UniProt P0DH95); experiment: co-IP; FLAG-tagged ZAR1 or variants co-expressed with HA-tagged CaM1 in Arabidopsis leaf protoplasts; precipitated with anti-HA antibody
[8] = molecular target: CaM1-nYFP (Arabidopsis) (UniProt P0DH95); experiment: split reporter; BiFC (cYFP and nYFP fusions, 35S promoter) in Arabidopsis leaf protoplasts, confocal microscopy
[9] = molecular target: T6, PMS1-nYFP (Arabidopsis) (UniProt Q941I6); experiment: as above
T6 sequence: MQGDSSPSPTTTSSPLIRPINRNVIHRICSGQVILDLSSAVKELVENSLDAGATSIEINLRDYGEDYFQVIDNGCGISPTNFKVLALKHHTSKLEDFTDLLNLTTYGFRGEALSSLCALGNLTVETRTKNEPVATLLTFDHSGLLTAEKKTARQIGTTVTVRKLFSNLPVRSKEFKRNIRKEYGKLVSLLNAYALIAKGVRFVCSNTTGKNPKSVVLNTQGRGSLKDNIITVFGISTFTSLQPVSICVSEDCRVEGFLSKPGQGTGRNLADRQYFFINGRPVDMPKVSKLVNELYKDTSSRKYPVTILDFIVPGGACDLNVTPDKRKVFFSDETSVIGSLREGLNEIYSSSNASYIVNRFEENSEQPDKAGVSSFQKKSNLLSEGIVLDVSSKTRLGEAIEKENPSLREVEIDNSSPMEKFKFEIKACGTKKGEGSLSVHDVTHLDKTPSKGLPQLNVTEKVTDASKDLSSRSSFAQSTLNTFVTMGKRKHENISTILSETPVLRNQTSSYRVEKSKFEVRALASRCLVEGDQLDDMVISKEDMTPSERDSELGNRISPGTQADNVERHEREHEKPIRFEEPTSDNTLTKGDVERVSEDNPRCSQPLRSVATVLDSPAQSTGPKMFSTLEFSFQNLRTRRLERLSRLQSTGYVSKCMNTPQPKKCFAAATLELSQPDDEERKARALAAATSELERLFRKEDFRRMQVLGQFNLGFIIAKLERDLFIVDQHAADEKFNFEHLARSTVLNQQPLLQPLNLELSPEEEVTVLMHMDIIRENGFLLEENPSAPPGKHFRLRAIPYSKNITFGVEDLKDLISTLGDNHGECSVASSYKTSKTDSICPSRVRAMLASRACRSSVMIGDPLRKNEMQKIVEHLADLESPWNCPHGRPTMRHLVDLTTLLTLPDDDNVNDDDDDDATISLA

[10] = molecular target: T7, AGB1-nYFP (Arabidopsis) (UniProt P49177); experiment: as above
T7 sequence: T3 sequence

Molecule: CaM1 (endogenous) (from UniProt P0DH95 1-149)
binding [1]: no binding
binding [2]: binds

Molecule: GST-CaM1 (from UniProt P0DH95 1-149)
binding [3]: binds

B3: AGB1 (endogenous) (protein, UniProt P49177 1-377)
chain: T3 sequence
binding [1]: no binding
binding [2]: binds

B4: FLAG-ZAR1 (protoplasts) (receptor, UniProt Q9ZU46 21-716)
chain: T2 sequence
binding [7]: binds

B6: FLAG-ZAR^K534>A (receptor, UniProt Q9ZU46 21-716)
chain: T2 sequence with K514A
binding [7]: binds

Next, values leading:

binding [4]: binds
binding [5]: binds
B1: HA-AGB1 (protein, UniProt P49177 1-377)
chain: T3 sequence

binding [6]: binds
B2: MBP-AGB1 (protein, UniProt P49177 1-377)
chain: T3 sequence

binding [8]: binds
binding [9]: no binding
binding [10]: binds
B5: ZAR1-cYFP (receptor, UniProt Q9ZU46 21-716)
chain: T2 sequence
